Data: PubChem BioAssay AID1346428 (National Center for Advancing Translational Sciences (NCATS), 2018)
Where “and” joins values, the source holds several entries; their conditions need not be identical. Identical values can stand only once. Hit rate of the full screen: of about 48,000 compounds, about 1,200 (2.5%) were called active. Inconclusive results (about 2%) are left out.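 The calls were made as follows: active = activation of at least 60% and not above a set upper limit (about 1 call in 100 departs from these limits); inconclusive = activation of 40% to 60%, or above that upper limit; inactive = activation under 40%.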 The list shows a part of the results.

Target: Probable G-protein coupled receptor 32 (Homo sapiens) (UniProt O75388)
UniProt O75388, sequence (O75388 whole entry, looked up): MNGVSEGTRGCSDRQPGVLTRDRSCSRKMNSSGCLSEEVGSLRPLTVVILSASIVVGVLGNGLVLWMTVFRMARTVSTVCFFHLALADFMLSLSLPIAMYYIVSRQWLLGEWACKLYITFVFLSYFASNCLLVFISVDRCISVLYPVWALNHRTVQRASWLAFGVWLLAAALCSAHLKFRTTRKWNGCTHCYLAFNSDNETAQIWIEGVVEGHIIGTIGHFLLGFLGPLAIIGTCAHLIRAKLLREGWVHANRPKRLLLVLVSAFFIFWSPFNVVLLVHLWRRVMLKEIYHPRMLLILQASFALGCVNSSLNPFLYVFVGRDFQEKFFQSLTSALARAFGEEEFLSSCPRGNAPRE
Experiment: qHTS for Agonists of Human Resolvin D1 Receptor DRV1; also: 0% is about no effect
Details: CHO-K1 GPR32 beta-arrestin PathHunter luminescence, 90 min; at 76.9 µM; hits give high values; zero percent set by DMSO-only wells
Outline: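 PathHunter enzyme-fragment complementation, CHO-K1 GPR32 stable line; 2,500 cells/well, overnight attach; cpd 90 min 37 °C 5% CO2; detection reagent 1 h RT; chemiluminescence. DMSO = EC0.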

Structure (SMILES)	activation
COc1ccc2c(c1)CC(NC(=O)Nc1ccc(NC(C)=O)cc1)CO2 (stereo not drawn)	inactive: -7.03%
CC(C)CNC(=O)c1c(-c2ccccc2)c(-c2ccccc2)nn(C)c1=O	inactive: -14.4%
Cc1ccccc1Cn1c(=O)n(CCCCC(=O)NCc2ccccc2Cl)c(=O)c2ccccc21	inactive: -14.5%
O=C(NCc1ccccc1Cl)c1ccc(NC(=O)c2nsc3ccccc23)cc1	inactive: -21.7%
COc1ccccc1CNC(=O)C1CCN(Cc2cc3ccccc3n2Cc2cccc(C)c2)CC1	inactive: -34.3%
O=C(CSc1nnc(-c2ccncc2)n1-c1ccccc1)Nc1ccc(Br)cc1	inactive: 2.04%
CCOc1ccc2nc(N3CCC(C(=O)Nc4ccc(Br)cc4F)CC3)sc2c1	inactive: -21.7%
CCOc1ccc(NC(=O)C2CCN(S(=O)(=O)c3ccc4c(c3)oc(=O)n4C)CC2)cc1	inactive: -6.34%
CCOc1cc(C)c(C(C)C)cc1S(=O)(=O)n1ccnc1CC	inactive: 2.33%
COc1ccc(Nc2ncnc3c2nc2n3CCCC2)cc1Cl	inactive: 8.28%
COc1nnc(-c2ccc(N3CCCCC3)c(NC(=O)c3ccccc3)c2)c2ccccc12	inactive: 47.8%
O=C(NCC(c1cccnc1)N1CCc2ccccc21)C(=O)Nc1ccccc1F (stereo not drawn)	inactive: -15.2%
CCc1cccc(NC(=O)c2cccc3c2C(=O)N(C2CCCCC2)C3)c1	inactive: -20.5%
CCOC(=O)c1c(C)n(S(=O)(=O)c2ccc(C)cc2)c2ccc(NS(=O)(=O)c3ccc(C)cc3)cc12	inactive: -18.3%
CC(NC(=O)c1cc(-c2ccc(Cl)cc2)on1)c1ccccc1 (stereo not drawn)	inactive: -6.59%
COc1ccc(CNC(=O)c2ccc3c(c2)N(Cc2ccccc2)CCS3)cc1	inactive: -29.6%
CCOC(=O)c1nnn(CC(=O)NC(=O)Nc2ccc(F)cc2)c1C(=O)OCC	inactive: -0.693%
Cc1ccccc1C(=O)Nc1ccc2oc(-c3ccc(Cl)c(Cl)c3)nc2c1	inactive: -2.37%
Cc1ccccc1Nc1nnc(-c2ccc(C)c(S(=O)(=O)N3CCCCC3)c2)c2ccccc12	inactive: -3.38%
O=C(NCC(c1ccc2c(c1)OCO2)N1CCN(c2ccccc2)CC1)c1ccccc1 (stereo not drawn)	inactive: -19.6%
CC(C)Oc1ccc(C(=O)Nc2nc3c(s2)CC(C(C)(C)C)CC3)cc1 (stereo not drawn)	inactive: 7.14%

Structure (SMILES)	activation
CC1Cn2cc(C(=O)Nc3ccccc3C(F)(F)F)c(=O)c3c(Cl)ccc(c32)O1 (stereo not drawn)	inactive: 4.38%
Cc1nc2nc(C(F)(F)F)[nH]n2c(=O)c1Cc1ccccc1	inactive: 25.5%
Cc1oc2ncn(CC(C)C)c(=O)c2c1C(=O)N(Cc1ccccc1)C(C)C	inactive: -11.4%
COc1cc(OC)c(NC(=O)c2cn(C)c(=O)c3cc(OC)c(OC)cc23)cc1Cl	inactive: 2.93%
O=C(/C=C/c1ccccc1)N1CCN(Cc2cc(=O)n3nc(-c4ccccc4Cl)sc3n2)CC1	inactive: -4.38%
O=c1c2ccccc2nc2n1CCc1c-2[nH]c2ccccc12	inactive: 21.3%
Cc1ccc(Cn2c(C)c3cnn(CC(=O)N4CCN(c5ccc(F)cc5)CC4)c(=O)c3c2C)cc1	inactive: -0.22%
O=C(CN1C(=O)C2(SCC(=O)N2c2ccc(Cl)cc2)c2ccccc21)NCCc1ccccc1 (stereo not drawn)	inactive: -21.3%
CCOc1ccccc1NC(=O)c1c(NC(=O)c2ccncc2)sc2c1CCC(C(C)(C)C)C2 (stereo not drawn)	active: 113%
COc1ccc(Cl)cc1NS(=O)(=O)c1c(C)[nH]c(=O)[nH]c1=O	inactive: 5.84%
C#C[C@]1(OC(C)=O)CC[C@H]2[C@@H]3CCC4=C/C(=N/O)CC[C@@H]4[C@H]3CC[C@@]21CC	inactive: 31.1%
c1ccc(CNCCNCc2ccccc2)cc1	inactive: 2.48%
O=S(=O)(Nc1cccc(-c2ccc(N3CCCC3)nn2)c1)c1cc(F)ccc1F	inactive: -8.58%
CCOc1ccc(S(=O)(=O)Nc2ccc(OC)c(Cl)c2)c2cccnc12	inactive: 18.9%
Cc1cccc(OCCSc2nc3ccccc3n2CC(=O)N2CCOCC2)c1C	inactive: 6.65%
CCOc1ccc(C2C(C(N)=O)=C(C)Nc3nc(-c4cccc(Cl)c4)nn32)cc1OC (stereo not drawn)	inactive: -18.2%
Cc1ccc(NC(=O)C2CCCN(S(=O)(=O)c3c(C)nn(C)c3C)C2)c(C)c1 (stereo not drawn)	inactive: 6.85%
CCOC(=O)N1CCN(Cc2nc3cc(NC(=O)c4ccc([N+](=O)[O-])cc4)ccc3n2C(C)C)CC1	inactive: -8.12%
CCN1C(=O)c2ccccc2S(=O)c2ccc(C(=O)NCc3ccccc3OC)cc21 (stereo not drawn)	inactive: 8.63%
CCCCCOc1ccc(NC(=O)Cn2c(-c3cncs3)nc3ccccc32)cc1	inactive: -14.8%
COc1cccc(CNC(=O)Cn2c(SCC(=O)Nc3ccc(C)c(C)c3)nc3ccccc32)c1	active: 113%

Structure (SMILES)	activation
O=C(O)c1c2c(nc3ccc(S(=O)(=O)N4CCC(C(=O)NCc5ccc(Cl)cc5)CC4)cc13)CCCC2	inactive: -29.9%
CSc1ccc(NC(=O)Cn2nnnc2-c2ccccc2F)cc1	inactive: 43.8%
COc1ccc(S(=O)(=O)NCC(c2ccco2)N2CCN(c3ccccc3F)CC2)cc1C (stereo not drawn)	inactive: -33.7%
COc1cc(/C=C/c2nc3cc(Cl)ccc3c(=O)n2-c2ccc(C)cc2C)cc(OC)c1OC	inactive: -25.4%
CCOC(=O)c1c(C)oc2nc(C)nc(N3CCN(c4cccc(C)c4C)CC3)c12	inactive: 4.83%
Cc1cc(Nc2cccc(C(F)(F)F)c2)nc2ccc(NC(=O)c3cccnc3)cc12	inactive: 19.3%
Cc1ccccc1-c1noc(-c2ccc(N3CCCC3)c([N+](=O)[O-])c2)n1	inactive: 24.2%
CC(=O)N1CCCc2ccc(NC(=O)c3ccc(C(F)(F)F)cc3)cc21	inactive: -6.55%
CC(C)c1ccc(-c2noc(SCC(=O)N(C)c3ccc(F)cc3)n2)cc1	inactive: 8.05%
CCOC(=O)c1cc(OC(=O)c2cccc(F)c2)n(-c2ccccc2)n1	inactive: -5.86%
O=C(NCc1cccnc1)C1CCN(Cc2cc3ccccc3n2Cc2ccccc2)CC1	inactive: -10.2%
CCOc1ccc(N(C(=O)c2ccc(OC)cc2)S(=O)(=O)c2ccc3c(c2)n(C)c(=O)n3C)cc1	inactive: -30.1%
CCC(=O)C1=C(c2ccc(F)cc2)N(C(=O)CC)n2c(nnc2C2CCCCC2)S1	inactive: -36.4%
CC(C)c1ccc(NC(=O)CN2C=NS(=O)(=O)c3ccccc32)cc1	inactive: 28.9%
CCC(=O)OC1=CN(Cc2ccccc2)S(=O)(=O)c2ccccc21	inactive: -6.54%
COC(=O)c1cc2oc(C)cc2n1Cc1ccc(C)cc1	inactive: -39.1%
CCN(CC)S(=O)(=O)c1ccc2c(c1)N(CC(=O)Nc1c(C)cc(C)cc1C)C(=O)CS2	inactive: -18.4%
Cc1cc(C)cc(NC(=O)CSc2nnc(CNC(=O)c3c(F)cccc3Cl)o2)c1	inactive: -6.41%
N#C/C(=C\c1c(Oc2ccc(F)cc2)nc2ccccn2c1=O)c1nc2ccccc2s1	inactive: 21.9%
CCOc1ccc(CCNC(=O)Cn2nc(CC)n3c(cc4c(OC)cccc43)c2=O)cc1OCC	inactive: -1.64%
Cc1cccc(N2CCN(C(=O)CN3C(=O)COc4ccc(S(=O)(=O)N5CCCC5)cc43)CC2)c1C	inactive: -2.28%

Structure (SMILES)	activation
CCc1ccc(CNC(=O)C2CCN(C(=O)c3ccc(-n4ccc5ccccc54)s3)CC2)cc1	inactive: 13.6%
O=C1CC(c2ccc(F)cc2)c2c(n3c(nc4ccccc43)[nH]c2=O)N1 (stereo not drawn)	inactive: 3.55%
CCCOc1ccc(C(=O)Nc2sc3c(c2C(=O)OCC)CCCCC3)cc1	inactive: 8.07%
O=C(O)CCCCC1CCSS1 (stereo not drawn)	inactive: -7.37%
COCC(=O)O[C@]1(CCN(C)CCCc2nc3ccccc3[nH]2)CCc2cc(F)ccc2[C@@H]1C(C)C	inactive: 36% and inactive: 48.5%
Cc1oc(-c2cccc(Br)c2)nc1CSc1nc2ncccc2[nH]1	inactive: -4.19%
Cc1ccccc1CS(=O)(=O)c1ncc(Cl)c(C(=O)Nc2nnc(C(C)C)s2)n1	inactive: -2.03%
Oc1ccc(NCc2ccccc2OCc2ccccc2Cl)cc1	inactive: -22.9%
CN(C)c1ccc(NC(=O)CSC2=Nc3ccccc3C3=NC(CC(=O)NCc4ccc5c(c4)OCO5)C(=O)N23)cc1 (stereo not drawn)	inactive: 9.8%
Cc1ccc(S(=O)(=O)Nc2c(C)nc3nc(C)[nH]n3c2=O)c(C)c1	inactive: -7.18%
Cc1cccc(-n2ncc(C(=O)Nc3ccc4c(c3)OCO4)c2C2CCN(C(=O)OC(C)(C)C)CC2)c1	inactive: -24.8%
COc1ccc(Cl)cc1NC(=O)c1c(NCc2cccs2)sc2c1CCCC2	inactive: -21.6%
COc1ccc(C(=O)NCc2nnc(SCC(=O)Nc3ccc(F)cc3)n2-c2ccccc2)cc1	inactive: 2.93%
COC(=O)c1ccc(NC(=O)CSc2nc3c(c(=O)n(C)c(=O)n3C)n2Cc2ccccc2)cc1	inactive: -8.91%
CC(C)C(=O)c1cc2c(cc1NC(=O)c1ccccc1F)OCCO2	inactive: -12.9%
Cc1ccc(NC(=O)Cn2cnc3c(oc4ccccc43)c2=O)cc1	inactive: 8.71%
Cc1ccc(C(=O)c2oc3ccccc3c2NC(=O)COc2ccc(C(C)(C)C)cc2)cc1	inactive: -11.5%
Cc1ccc(COc2cccc3cc(-c4noc(-c5ccc(C)cc5)n4)c(=O)oc23)cc1	inactive: -4.91%
Oc1cc2c(c(Cl)c1O)CCNCC2c1ccccc1 (stereo not drawn)	inactive: 6.33%
Cc1cc(Nc2ccc(Cl)cc2)n2cnnc2n1	inactive: -4.25%
